Out of some 310,000 compounds screened, about 14,000 (4.5%) showed an effect of 50% or more. Effects have a minus sign here. This is one part of the list.
target: human ether-à-go-go-related gene (hERG) potassium channel (human, UniProt Q12809); test: primary screen, population patch clamp on CHO cells stably expressing hERG
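Note: peak tail current of the secondary pulse compared with the same well before compound.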

Sequence of human ether-à-go-go-related gene (hERG) potassium channel (Q12809 whole entry, looked up): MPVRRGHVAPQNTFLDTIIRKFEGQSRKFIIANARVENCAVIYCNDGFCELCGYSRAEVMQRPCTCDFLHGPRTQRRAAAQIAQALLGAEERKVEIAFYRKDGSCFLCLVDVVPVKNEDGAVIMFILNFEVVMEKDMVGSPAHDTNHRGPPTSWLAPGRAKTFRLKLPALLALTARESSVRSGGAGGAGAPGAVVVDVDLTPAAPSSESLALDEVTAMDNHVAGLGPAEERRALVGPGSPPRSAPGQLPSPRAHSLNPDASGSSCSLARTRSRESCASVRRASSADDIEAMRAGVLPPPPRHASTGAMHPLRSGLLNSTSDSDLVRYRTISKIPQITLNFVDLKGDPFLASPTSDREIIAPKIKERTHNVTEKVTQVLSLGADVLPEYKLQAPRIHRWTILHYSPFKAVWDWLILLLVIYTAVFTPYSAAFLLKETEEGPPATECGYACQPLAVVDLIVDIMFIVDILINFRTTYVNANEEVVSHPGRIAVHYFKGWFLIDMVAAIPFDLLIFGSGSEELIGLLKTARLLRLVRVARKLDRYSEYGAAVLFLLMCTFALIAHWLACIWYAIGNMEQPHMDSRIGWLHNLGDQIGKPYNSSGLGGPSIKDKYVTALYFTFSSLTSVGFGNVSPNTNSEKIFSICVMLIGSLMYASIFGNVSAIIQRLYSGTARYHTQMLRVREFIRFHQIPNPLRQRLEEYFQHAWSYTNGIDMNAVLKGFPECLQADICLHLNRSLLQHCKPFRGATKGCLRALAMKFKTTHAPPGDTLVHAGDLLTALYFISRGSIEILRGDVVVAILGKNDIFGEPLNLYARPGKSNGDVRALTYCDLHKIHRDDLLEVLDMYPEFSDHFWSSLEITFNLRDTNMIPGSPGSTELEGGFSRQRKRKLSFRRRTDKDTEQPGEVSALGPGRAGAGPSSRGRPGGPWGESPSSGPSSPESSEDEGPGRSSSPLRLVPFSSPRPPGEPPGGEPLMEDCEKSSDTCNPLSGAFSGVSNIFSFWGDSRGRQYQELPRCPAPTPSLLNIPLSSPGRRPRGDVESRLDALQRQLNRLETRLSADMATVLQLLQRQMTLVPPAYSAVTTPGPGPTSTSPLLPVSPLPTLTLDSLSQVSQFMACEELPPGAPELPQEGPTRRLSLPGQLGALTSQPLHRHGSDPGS

Row | Structure (SMILES) | hERG current change (%, negative = inhibition) at 10uM [%]
1 | O=C(CCc1nc2ccccc2c(=O)[nH]1)Nc1cccc(S(=O)(=O)N2CCCCC2)c1 | 10.9
2 | O=C(CN1C(=O)c2cccc([N+](=O)[O-])c2C1=O)N1CCN(c2ccc(F)cc2)CC1 | 7.99
3 | Cc1cc(C)cc(N(CC(=O)NCCSCc2ccco2)S(C)(=O)=O)c1 | -11.7
4 | O=C(CSC1=N/C(=C/c2ccco2)C(=O)N1c1ccc(OC(F)F)cc1)NC1CCS(=O)(=O)C1 (stereo not drawn) | -27.5
5 | COc1ccccc1N(CC(=O)NCCc1ccccc1)C(=O)CCC(=O)Nc1cc(C)ccn1 | -3.26
6 | CC(=O)c1ccc(N2CCN(C(=O)C3CCN(S(=O)(=O)c4ccc(F)cc4)CC3)CC2)cc1 | -52.6
7 | CC/C(C)=N/Nc1nc2c(c(=O)[nH]c(=O)n2C)n1Cc1ccccc1 | 5.57
8 | CCOc1cc(CNc2ncnc3nc[nH]c23)ccc1OC | 7.07
9 | O=C(COc1ccc(C(=O)NCc2cccnc2)cc1)Nc1cccc(C(F)(F)F)c1 | -60.6
10 | Cc1ccccc1C(=O)c1c[nH]c(C(=O)NCc2cccs2)c1 | 17.8
11 | O=C1CC2c3ccccc3C1C1C(=O)N(CCc3ccccc3)C(=O)C21 (stereo not drawn) | -1.88
12 | CCOc1cc(NC(=O)CCl)c(OCC)cc1NC(C)=O | 20
13 | CC(=O)c1ccc(OCc2cc(C(=O)N3CCN(c4ccccc4)CC3C)no2)cc1 (stereo not drawn) | 1.99
14 | CCC(C)N(C(=O)COC(=O)CSc1ccc([N+](=O)[O-])cc1)C1CCS(=O)(=O)C1 (stereo not drawn) | -29.8
15 | CCN1C(=O)N[C@@H](CCc2ccccc2)[C@@H](C(=O)OC)[C@H]1C | -0.742
16 | Cc1ccccc1NC(=O)c1nnn(-c2ccc3c(c2)OCCO3)c1N | -1.68
17 | O=C(CCS(=O)(=O)c1ccc(F)cc1)Nc1ccc(N2CCN(Cc3ccccc3)CC2)cc1 | -0.195
18 | COc1ccc(NC2=NCCC(=O)N2Cc2cccs2)cc1.Cl | 10.3
19 | COc1cc(/C=N/N(c2ccccc2)c2ccccc2)ccc1O | 18
20 | CC1CCCCC1NC(=O)CN1C(=O)COc2ccccc21 (stereo not drawn) | 16.9
21 | CSC1=NCCN1C(=O)c1c(-c2c(F)cccc2Cl)noc1C | -9.91
22 | Cc1ccc(N=Cc2cccc(O)c2O)c(C)c1 | -19.7
23 | CCCCN(C)CCNC(=O)c1ccc2c(c1)NC(=O)C(N1CCCCC1)S2 (stereo not drawn) | 2.48
24 | O=C(CNC(=O)c1ccc(Br)cc1)OCc1cc([N+](=O)[O-])cc2c1OCOC2 | 8.26
25 | CCOCCCN(C(=O)c1snc(C(N)=O)c1N)C(C(=O)NCCC(C)C)c1ccc(Cl)cc1 (stereo not drawn) | -68.1
26 | C=C(C)CSc1nnc([C@@H]2CCCN2C(=O)OC(C)(C)C)o1 | 12.5
27 | CCc1noc(C)c1C(=O)N1CCN(S(=O)(=O)c2ccc(Cl)cc2)CC1 | -31.8

Row | Structure (SMILES) | hERG current change (%, negative = inhibition) at 10uM [%]
28 | CCCc1nc2ccccc2c(=O)n1-c1ccc(OC)cc1 | 9.5
29 | O=C(Cn1cc[n+](Cc2ccccc2)c1)c1ccc([N+](=O)[O-])cc1.[Br-] | -23.7
30 | COc1cc2c(cc1OC)C(CC#N)=NC(C)(C)C2 | 1.7
31 | C=CCn1c(CCNC(=O)c2ccco2)nc2ccccc21 | 8.65
32 | COc1cc(CNC(=O)c2ccc(Cn3nc(C)c(Cl)c3C)o2)cc(OC)c1 | -17.3
33 | Br.N=C1c2ccccc2CN1NC(=O)C1CC1 | -0.826
34 | CCN(CC)S(=O)(=O)c1ccc2c(c1)nc(CCC(=O)Nc1ccc3c(c1)OCO3)n2C | -2.36
35 | CCN(CC)C1CC(=O)N(c2cccc(C)c2)C1=O (stereo not drawn) | -0.878
36 | Cn1cc(-c2ccccc2C(=O)O)c(=O)c2cc(Cl)ccc21 | 20.9
37 | O=C(CNC(=O)c1ccc(-c2ccccc2)cc1)OCc1c(Cl)cccc1Cl | 7.89
38 | Cc1cccc(NC(=O)c2cc(NC(=O)c3ccco3)ccc2N2CCCCC2)c1 | 7.21
39 | CCOC(=O)C(C)n1cnc2c(nnn2-c2ccc(C)cc2)c1=O (stereo not drawn) | -17.1
40 | CCCC(=O)Nc1ccc(Sc2ccc([N+](=O)[O-])cc2)cc1 | -12.2
41 | CCOc1ccccc1NC(=O)COC(=O)Cc1ccsc1 | -0.519
42 | Cc1ccc(C(C)C)c(OCC#CCN2CCOCC2)c1.O=C(O)C(=O)O | -3.23
43 | CCOC(=O)C(CC)Sc1nc2c(c(=O)[nH]c(=O)n2C)n1CCc1ccccc1 (stereo not drawn) | -67.8
44 | COc1cc(C(=O)N(Cc2cccc(Cl)c2)C2CCS(=O)(=O)C2)cc(OC)c1OC (stereo not drawn) | -22.2
45 | O=C(NCc1ccco1)/C(=C\c1cccs1)NC(=O)c1ccsc1 | -7.6
46 | COc1ccc(C(=O)Nc2cccc(-c3cnc4ccccc4n3)c2)cc1 | 4.43
47 | COC(=O)C1(C)NC(c2ccc(O)cc2)C2C(=O)N(c3ccccc3)C(=O)C21 (stereo not drawn) | 14.4
48 | Cc1ccc(C(=O)N2CCN(c3ccc(Cl)cc3)CC2)cc1 | -61.1
49 | COc1ccc(/C=C/C(=O)NC(=S)Nc2cc([N+](=O)[O-])ccc2O)cc1OC | 19.7
50 | COCCn1c(SCC(=O)Nc2ccccc2F)nnc1-c1ccoc1C | 2.8
51 | CCO.Cc1cc(C)c2nc(NC(=O)c3cccc(S(=O)(=O)N4CCc5ccccc54)c3)sc2c1 | 7.89
52 | CCN(CC)S(=O)(=O)c1ccc(C)c(NC(=O)COC(=O)CNC(=O)c2ccc(C(C)(C)C)cc2)c1 | 7.12
53 | CC(=O)c1c(C)nc2ccc(Br)cc2c1C(=O)O | 19.1
54 | Cc1cc(=O)oc2cc(OC(C)C)ccc12 | 3.81
